Measured values from PubChem BioAssay AID493208 (National Center for Advancing Translational Sciences (NCATS), 2011).
Hit rate of the full screen: of about 44,000 compounds, about 340 (0.77%) were called active. Not shown: some 5% with an inconclusive outcome. Calls follow the shape of the dose curve; as a rule, active = well fitted inhibition curve with a large enough effect; inconclusive = small, poorly fitted or top-dose-only effect; inactive = flat fitted curve, though single readings scatter. The list shows a part of the results.

Assay: Acumen qHTS Assay for Inhibitors of the mTORC1 Signaling Pathway in MEF (Tsc2-/-, p53-/-) Cells: Sytravon;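 also: plate controls were DMSO for no effect and rapamycin for full effect; nearly all actives have a fitted effect of over 50% in size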
Conditions: phospho-rpS6 immunofluorescence/PI, 24 h; series mostly up to 38.3 µM; activity change, negative = inhibition: at the top concentration
How it was run: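 Plate MEFs (Tsc2-/-, p53-/-, empty vector) in DMEM/10% FBS; after 24 h add compound, incubate 24 h at 37 degree Celsius; fix in PFA/TX-100, block, stain phospho-rpS6 and 10 uM PI; scan at 488 nm; report % positive cells.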

Activity change, negative = inhibition, inactive:
CCOC(=O)c1cccc(NC(=O)CSc2cc(=O)n(C)c3ccccc23)c1 4.67%, O=C(Nc1ccc(C(F)(F)F)cc1)c1cc(S(=O)(=O)N2CCCc3ccccc32)ccc1F -4.15%, CCOC(=O)c1ccc(Oc2nc(C)nc3c2oc2ccccc23)cc1 -0.0667%, Cc1nnsc1C(=O)Oc1ccc(C#N)cc1 -9.12%, O=C(/C=C/c1ccccc1)Nc1nc2n(n1)C(c1ccc(Cl)cc1)C=C(c1ccccc1)N2 (stereo unspecified) 4.34%, Clc1ccc(CN2CCc3nc(N4CCN(c5ccccn5)CC4)ncc3C2)cc1 0%, O=C(CN1C(=O)C2(SCC(=O)N2c2cccc(F)c2)c2ccccc21)NCc1ccccc1Cl (stereo unspecified) -6.34%, CCCOc1ccc(NC(=O)CC2C(=O)N(c3ccc(OC)cc3)C(=O)N2CCc2ccncc2)cc1 (stereo unspecified) -10%, CCc1nc2ccccc2n1CCCCOc1cccc(C)c1 -6.42%, CCOC(=O)c1cc(-c2ccccc2)n(CCCC(=O)Nc2cccc(C)c2)c1C -1.14%, CC(C)CC(=O)NCC(c1ccc2c(c1)OCO2)N1CCN(c2ccc(F)cc2)CC1 (stereo unspecified) -8.43%, CC(C)(C)c1ccc(S(=O)(=O)c2cnc(SCC(=O)Nc3ccc4c(c3)OCCO4)[nH]c2=O)cc1 1.09%, COc1cccc2c1cc1c(=O)n(CC(=O)N3CCN(c4ccc(F)cc4)CC3)nc(C)n12 -1.61%, CCCS(=O)(=O)c1nc(S(=O)(=O)c2ccc(C)cc2)c(NCCCOC(C)C)s1 -1.46%, COc1ccc2nc(SCC(O)c3cccc(Br)c3)[nH]c2c1 (stereo unspecified) -2.05%, Cc1ccc(Sc2ccc(N3CCCC(C(=O)Nc4ccc(F)cc4)C3)nn2)cc1 (stereo unspecified) -5.29%, O=C(Cn1nc(N2CCN(c3ccccc3)CC2)ccc1=O)NCc1ccccc1F 8.17%, CCN(CC)C(=O)CSc1nc2cc3c(cc2c(=O)n1CCCC(=O)NCc1ccc2c(c1)OCO2)OCO3 -3.46%, COc1ccc(-c2cn3c(n2)sc2cc(C(=O)NCCCc4ccccc4)ccc23)cc1 8.55%, Cc1nn(-c2ccc(N3CCCCC3)nn2)c(C)c1CCC(=O)NCc1ccccc1 -14.7%, Cc1cccc(C(=O)Nc2ccccc2OCc2cc(=O)n3ccccc3n2)c1 4.08%, CCOc1ccc(NC(=O)c2cn(C3CCCCC3)c(=O)c3c2c2ccccc2n3C)cc1 -15.4%, Cc1ccc(-c2nnc(SCC(=O)NC(C)(C)C)nc2-c2ccc(C)cc2)cc1 3.22%, Cn1c(=O)c2c(nc(NCCc3ccccc3)n2Cc2ccccc2Br)n(C)c1=O 0.568%, CCOc1ccc(C(=O)N(Cc2nc(-c3cccc(C)c3)no2)C(C)C)cc1 -6.39%, COc1ccc(-c2nc(CN3CCC(C(=O)NCc4ccc(C)cc4)CC3)c(C)o2)cc1OC -10.9%, CCOc1ccc(CNC(=O)CCCn2c(=O)c3cccn3c3ccccc32)cc1 -14.8%, COc1ccc(CCNC(=O)C(=O)NCC(c2cccs2)S(=O)(=O)c2cccs2)cc1 (stereo unspecified) 0.0636%, COc1ccccc1CNc1ncnc2onc(-c3ccc(F)cc3)c12 -1.03%, COc1ccc(C(=O)n2nc(-c3cccnc3)nc2NCc2ccccc2)cc1OC 3.3%, CCOc1ccccc1Nc1nc2ccccc2nc1NS(=O)(=O)c1ccc(Cl)cc1 3.81%, CC(=O)N1CCCc2cc(S(=O)(=O)N3CCC(C(=O)Nc4c(C)cccc4C)CC3)ccc21 0.816%, CCc1nnc(SCc2cccc(Cl)c2)c2cc3sccc3n12 4.38%, COc1ccc(-c2cc(OC(=O)c3ccccc3Cl)c3c(C)oc(C)c3c(=O)c2)cc1OC -3.96%, Cc1cc(C)c(NC(=O)CSc2nc3nccnc3c(=O)n2CCc2c[nH]c3ccccc23)c(C)c1 0.278%, CCOc1cccc(C(=O)Nc2ccc3oc(-c4ccncc4)nc3c2)c1 -2.72%, Cc1cc(F)ccc1NC(=O)Cn1nc(N2CCN(c3ccccc3)CC2)ccc1=O 7.85%, COc1ccc2c(CNC3CCCCCC3)c(C(=O)O)n(Cc3ccc(C)cc3)c2c1 -0.348%, Cc1ccc(-c2noc(-c3cccnc3NCc3ccco3)n2)cc1 -11.5%, COc1ccc(CNC(=O)CN2C(=O)COc3ccc(S(=O)(=O)N4CCCCC4)cc32)cc1 -7.48%, Cc1ccc(Cn2c(C)c3cnn(CC(=O)O)c(=O)c3c2C)cc1 0.649%, O=C(Nc1cccc(C(=O)OCc2cc(=O)n3c4c(sc3n2)CCCC4)c1)c1ccc(Cl)cc1 0%, COc1ccc(NC(=O)Cn2c(=O)n(CCCCCC(=O)NCc3ccc4c(c3)OCO4)c(=O)c3sccc32)cc1Cl 0.962%, O=C(NCc1ccccc1)c1cnc2sc(N3CCCC3)nn2c1=O 5.02%, CCN(CC)C(=O)c1sc2c(c1C)c(=O)n(Cc1ccccc1)c(=O)n2Cc1cc(C)ccc1C -6.67%, COc1ccc(C)cc1NC(=O)c1sc2nc(-c3ccc(F)cc3)cn2c1C -11.9%, CCOc1cc(S(=O)(=O)NCCc2c(C)[nH]c3ccc(C)cc23)ccc1F 1.98%, COc1ccc2c(c1)c(CC(=O)Nc1cc(C)cc(C)c1)c(C)n2C(=O)c1ccc(Cl)cc1 -0.149%, O=C(CCCn1ncn2c(cc3occc32)c1=O)NCc1ccccc1F -7.3%, Cc1cc(C)c2oc(C(=O)Nc3ccc(S(=O)(=O)Nc4ncccn4)cc3)cc(=O)c2c1 5.53%, Cc1cc2c(cc1S(=O)(=O)C(C)CC(=O)NC1CCC(C)CC1)OCC(=O)N2 (stereo unspecified) -2.72%, O=C(Nc1ccccc1C(F)(F)F)c1cc2nc(-c3ccccc3)cc(-c3ccccc3)n2n1 -0.624%, CCc1ccc2c(c1)NC(c1ccc(F)cc1)=NC(c1ccncc1)=N2 0.307%, CCc1ccc(OC(=O)CSc2nnc(-c3ccc(OC)c(OC)c3)o2)cc1 0.335%, Cc1c2cnn(CC(=O)NC(C)C)c(=O)c2c(C)n1Cc1cccc(Cl)c1 0.128%, COc1ccc(/C=C/c2nc(C#N)c(NCc3ccc(C)cc3)o2)cc1OC -8.38%, CCNC(=O)c1ccc2c(c1)sc1nc(-c3cccc(OC)c3)cn12 -0.0328%, CC(Oc1ccccc1)C(=O)Nc1cccc(-c2cn3cccnc3n2)c1 (stereo unspecified) 3.11%, O=C(NCCc1ccccc1)c1ccc2c(c1)N(Cc1ccc(F)cc1Cl)C(=O)CS2 0.342%, Cc1ccc(NC(=O)N2CCC3(CC2)Oc2ccccc2C(=O)N3Cc2ccc(F)cc2)cc1 1.18%, CCOc1ccc(NC(=O)CC2C(=O)N(c3ccccc3)C(=O)N2CCc2sccc2C)cc1 (stereo unspecified) -16.4%, CCOc1nc(-c2ccccc2)ccc1-c1noc(-c2ccc(C)cc2)n1 -28.8%, COc1ccc(S(=O)(=O)c2c(C(=O)c3ccc(C)c(C)c3)cnc3ccc(C)cc23)cc1 -9.31%, Fc1ccc(-c2cc(-c3nc(-c4ccc(Cl)cc4)no3)[nH]n2)cc1 10.6%, Cc1c(C(=O)OC2CCC(C)CC2)[nH]c2c1C(=O)CC(c1ccc(N(C)C)cc1)C2 (stereo unspecified) 9.45%, CC(C)(C)OC(=O)N1CCC(c2c(C(=O)N3CCN(C(=O)c4ccco4)CC3)cnn2-c2cccc(Cl)c2)CC1 5.77%, CC(=O)c1ccc(NC(=O)c2nc(-c3ccc(Cl)cc3)n3c2CCCCC3)cc1 -10.8%, COc1cccc(OCC(=O)NC2CC(=O)N(c3cccc(OC)c3)C2)c1 (stereo unspecified) 0.382%, COC(=O)c1cc(NC(=O)CC2C(=O)OCCN2Cc2ccccc2)cc(C(=O)OC)c1 (stereo unspecified) 2.47%, Cc1cccc(OCC(=O)N2CCC(c3nc4ccccc4o3)CC2)c1C 0.391%, Cc1cc(C)c2c(=O)cc(C(=O)Nc3sc4c(c3C(=O)NCc3ccco3)CCCC4)oc2c1 -1.21%, CS(=O)(=O)CC[C@@H](C(=O)NCCc1ccccc1)N1Cc2ccccc2C1=O -11.3%, CN(c1nnc(NC(=O)Nc2ccccc2C(F)(F)F)s1)C1CCCCC1 -0.763%, COc1ccc(NC(=O)Cn2c(=O)c3ccccc3n3nncc23)cc1Cl 2.05%, COCc1cc(C)nc2c1C(=O)NC(c1ccc(NC(C)=O)cc1)N2Cc1ccccc1 (stereo unspecified) 1.39%, Cc1ccc(NC(=O)CN2C(=O)c3cccnc3Sc3ccccc32)c(Br)c1 -10.9%, Cc1ccc(Nc2c3c(nc4nncn24)CCC3)c(C)c1 -4.73%, COc1ccc2c(c1)-c1nc(NC(=O)c3cccc(Br)c3)sc1CC2 -2.19%, Cc1ccc(NC(=O)Cn2nnc(-c3ccccc3)n2)c(C)c1 -0.0302%, O=C(C1COc2ccccc2O1)N(Cc1cccnc1)c1nc2c(F)cccc2s1 (stereo unspecified) -4.75%, CCOC(=O)c1c(NC(=O)c2cc(-c3cccc(Cl)c3)on2)sc(C(C)=O)c1C -0.159%, CC1CCN(S(=O)(=O)c2cc(C(=O)N3CCN(c4cccc(Cl)c4)CC3)n(C)c2)CC1 -13.6%, COc1ccc(N(CC(=O)N2CCc3ccccc3C2)S(=O)(=O)c2ccccc2)cc1 3.36%, CCOC(=O)c1nnn(C(CC)C(=O)Nc2ccc(F)cc2)c1C(=O)OCC (stereo unspecified) -26.7%, COc1ccccc1C1C(C(=O)N2CCCCC2)=C(C)Nc2nc3ccccc3n21 (stereo unspecified) -1%, CCOc1ccc(S(=O)(=O)c2cn(CC)c3ccc(F)cc3c2=O)cc1 0.751%, CSc1ccc(CCNC(=O)Cn2c(C)c3cnn(-c4ccccc4)c(=O)c3c2C)cc1 1.03%, COc1cccc(/C=C/c2nc(C#N)c(NC3CCCCC3)o2)c1 -9.62%, CCc1cccc(NC(=O)CSc2nnc(-c3cc4occc4n3C)n2-c2ccccc2C)c1 -0.13%, COc1cccc(-n2c(=O)c3sc4ccccc4c3n(Cc3c(F)cccc3Cl)c2=O)c1 1.68%, Cc1ccc(-n2nc(CO)c(C(=O)NCCC(C)C)n2)cc1C 4.81%, Cc1ccc(CNC(=O)c2ccc(Cn3c(SCc4ccc(F)cc4)nc4cccnc43)cc2)o1 -0.761%, O=c1n(Cc2ccc(F)cc2)c2ccccc2c2nc(-c3ccccc3)nn12 2.13%, CCOC(=O)c1c(C)oc2nc(C)nc(NCC3CCN(Cc4cc(C)ccc4C)CC3)c12 -5.9%, CCCN(C(=O)CCc1nc(-c2ccc(C)cc2)no1)c1ccc(OCC)cc1 0.0915%, Cc1ccc(N2C(=O)C(CC(=O)Nc3cccc(F)c3)N(CCc3ccccc3F)C2=O)cc1 (stereo unspecified) -20.3%
